pIC50: −log10 of the molar value. A lower IC50 marks a more sensitive line; where the fit passes the top or lowest dose, that dose stands as a limit. AUC sums up the same curve from the lowest dose to the 256-fold higher top dose; values near 1 show little effect. For some assays here: Where the top dose is marked as inferred, it comes from the curve model; the source does not state it.
Columns and labels:
Test in all cases: Viability of human cancer cell lines after 72 h of drug (GDSC screen)
Dimethyloxalylglycine = compound: COC(=O)CNC(=O)C(=O)OC [Dimethyloxalylglycine]; conditions: top dose 4000 µM; top dose inferred
Experimental: (§1)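 Human cancer cell lines in 384-well plates, medium with 10% serum, drug for 72 h over a 256-fold dose range (nine 2-fold or five 4-fold steps up to the top dose). Adherent lines were fixed and stained with the nucleic acid dye Syto60, suspension lines read with resazurin; signal relative to control wells, capped at 0 and 100%. One two-parameter sigmoid per drug and line, fitted in a mixed model over all curves with the slope shared within a line.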

VX-11e = compound: Cc1cnc(Nc2ccc(F)cc2Cl)nc1-c1c[nH]c(C(=O)N[C@H](CO)c2cccc(Cl)c2)c1 [VX-11e]; conditions: top dose 5.12 µM; top dose inferred
Experimental: as §1

Vismodegib = compound: CS(=O)(=O)c1ccc(C(=O)Nc2ccc(Cl)c(-c3ccccn3)c2)c(Cl)c1 [Vismodegib]; conditions: top dose 10 µM; top dose inferred
Experimental: as §1

17-AAG = compound: C=CCNC1=C2C[C@@H](C)C[C@H](OC)[C@H](O)[C@@H](C)/C=C(\C)[C@H](OC(N)=O)[C@@H](OC)/C=C\C=C(/C)C(=O)NC(=CC1=O)C2=O [17-AAG]; conditions: top dose 1 µM
Experimental: as §1

CCT018159 = compound: CCc1cc(-c2n[nH]c(C)c2-c2ccc3c(c2)OCCO3)c(O)cc1O [CCT018159]; conditions: top dose 10 µM; top dose inferred
Experimental: as §1

BIX02189 = compound: CN(C)Cc1cccc(N=C(c2ccccc2)c2c(O)[nH]c3cc(C(=O)N(C)C)ccc23)c1 [BIX02189]; conditions: top dose 20 µM; top dose inferred
Experimental: as §1

UNC1215 = compound: O=C(c1ccc(C(=O)N2CCC(N3CCCC3)CC2)c(Nc2ccccc2)c1)N1CCC(N2CCCC2)CC1 [UNC1215]; conditions: top dose 1 µM; top dose inferred
Experimental: as §1

BMX-IN-1 (QL-XII-61) = compound: C=CC(=O)Nc1cc(-n2c(=O)ccc3cnc4ccc(-c5ccc(NS(C)(=O)=O)cc5)cc4c32)ccc1C [BMX-IN-1 (QL-XII-61)]; conditions: top dose 10 µM; top dose inferred
Experimental: as §1

Doxorubicin = compound: COc1cccc2c1C(=O)c1c(O)c3c(c(O)c1C2=O)C[C@@](O)(C(=O)CO)C[C@@H]3O[C@H]1C[C@H](N)[C@H](O)[C@H](C)O1 [Doxorubicin]; conditions: top dose 1.024 µM
Experimental: as §1

TG101348 = compound: Cc1cnc(Nc2ccc(OCCN3CCCC3)cc2)nc1Nc1cccc(S(=O)(=O)NC(C)(C)C)c1 [TG101348]; conditions: top dose 10.24 µM
Experimental: as §1

OSI-027 = compound: COc1cccc2cc(-c3nc([C@H]4CC[C@H](C(=O)O)CC4)n4ncnc(N)c34)[nH]c12 [OSI-027]; conditions: top dose 20 µM
Experimental: as §1

Row | Cell Line | AUC (Dimethyloxalylglycine) | pIC50 (Dimethyloxalylglycine) | AUC (VX-11e) | pIC50 (VX-11e) | AUC (Vismodegib) | pIC50 (Vismodegib) | AUC (17-AAG) | pIC50 (17-AAG) | AUC (CCT018159) | pIC50 (CCT018159) | AUC (BIX02189) | pIC50 (BIX02189) | AUC (UNC1215) | pIC50 (UNC1215) | AUC (BMX-IN-1 (QL-XII-61)) | pIC50 (BMX-IN-1 (QL-XII-61)) | AUC (Doxorubicin) | pIC50 (Doxorubicin) | AUC (TG101348) | pIC50 (TG101348) | AUC (OSI-027) | pIC50 (OSI-027)
1 | LXF-289 (lung adenocarcinoma, adherent) | 0.508 | 3.58 | 0.982 | < 5.29 | 0.987 | < 5.00 | 0.35 | 7.62 | 0.952 | < 5.00 | 0.975 | < 4.70 | 0.984 | < 6.00 | 0.976 | < 5.00 | 0.439 | 7.36 | 0.79 | 5.35 | 0.757 | 5.17
2 | M059J (glioma, adherent) | 0.563 | 3.42 | 0.94 | < 5.29 | 0.98 | < 5.00 | 0.524 | 7.14 | 0.935 | < 5.00 | 0.95 | < 4.70 | 0.984 | < 6.00 | 0.955 | < 5.00 | 0.419 | 7.42 | 0.865 | < 4.99 | 0.734 | 5.21
3 | MC-CAR (haematopoietic neoplasm, suspension) | 0.614 | 3.31 | 0.914 | < 5.29 | 0.989 | < 5.00 | 0.937 | < 6.00 | 0.84 | 5.23 | 0.848 | 4.90 | 0.982 | < 6.00 | 0.792 | 5.40 | 0.452 | 7.32 | 0.471 | 6.27 | 0.153 | 6.90
4 | MDST8 (large intestine, adherent) | 0.866 | 2.45 | 0.861 | 5.37 | 0.959 | < 5.00 | 0.779 | 6.39 | 0.883 | < 5.00 | 0.971 | < 4.70 | 0.938 | < 6.00 | 0.955 | < 5.00 | 0.73 | 6.54 | 0.88 | < 4.99 | 0.748 | 5.19
5 | MFE-280 (endometrium, adherent) | 0.611 | 3.26 | 0.903 | < 5.29 | 0.982 | < 5.00 | 0.888 | < 6.00 | 0.981 | < 5.00 | 0.888 | < 4.70 | 0.98 | < 6.00 | 0.959 | < 5.00 | 0.905 | < 5.99 | 0.839 | 5.00 | 0.345 | 6.39
6 | MFE-296 (endometrium, adherent) | 0.538 | 3.49 | 0.979 | < 5.29 | 0.975 | < 5.00 | 0.611 | 6.89 | 0.911 | < 5.00 | 0.962 | < 4.70 | 0.983 | < 6.00 | 0.852 | 5.06 | 0.522 | 7.13 | 0.924 | < 4.99 | 0.355 | 6.32
7 | MFM-223 (breast, adherent) | 0.884 | < 2.40 | 0.988 | < 5.29 | 0.97 | < 5.00 | 0.724 | 6.57 | 0.959 | < 5.00 | 0.931 | < 4.70 | 0.985 | < 6.00 | 0.988 | < 5.00 | 0.989 | < 5.99 | 0.918 | < 4.99 | 0.79 | 5.05
8 | MHH-ES-1 (Ewing sarcoma, adherent) | 0.438 | 3.77 | 0.942 | < 5.29 | 0.972 | < 5.00 | 0.737 | 6.53 | 0.866 | 5.06 | 0.875 | 4.71 | 0.984 | < 6.00 | 0.899 | < 5.00 | 0.397 | 7.47 | 0.608 | 5.90 | 0.195 | 6.80
9 | MN-60 (B-cell leukaemia, suspension) | 0.417 | 3.84 | 0.986 | < 5.29 | 0.98 | < 5.00 | 0.988 | < 6.00 | 0.981 | < 5.00 | 0.931 | < 4.70 | 0.98 | < 6.00 | 0.922 | < 5.00 | 0.821 | 6.21 | 0.775 | 5.37 | 0.268 | 6.58
10 | MOG-G-CCM (glioma, adherent) | 0.577 | 3.37 | 0.952 | < 5.29 | 0.933 | < 5.00 | 0.694 | 6.62 | 0.935 | < 5.00 | 0.922 | < 4.70 | 0.976 | < 6.00 | 0.963 | < 5.00 | 0.64 | 6.78 | 0.85 | 5.01 | 0.361 | 6.32
11 | MOG-G-UVW (glioma, adherent) | 0.621 | 3.27 | 0.986 | < 5.29 | 0.945 | < 5.00 | 0.75 | 6.50 | 0.822 | 5.25 | 0.969 | < 4.70 | 0.976 | < 6.00 | 0.929 | < 5.00 | 0.492 | 7.21 | 0.933 | < 4.99 | 0.497 | 5.91
12 | MZ1-PC (pancreas, adherent) | 0.307 | 4.20 | 0.403 | 6.79 | 0.976 | < 5.00 | 0.933 | < 6.00 | 0.934 | < 5.00 | 0.88 | < 4.70 | 0.951 | < 6.00 | 0.978 | < 5.00 | 0.392 | 7.52 | 0.72 | 5.50 | 0.344 | 6.38
13 | MZ2-MEL (melanoma, adherent) | 0.594 | 3.32 | 0.744 | 5.74 | 0.964 | < 5.00 | 0.553 | 7.05 | 0.922 | < 5.00 | 0.95 | < 4.70 | 0.97 | < 6.00 | 0.96 | < 5.00 | 0.388 | 7.53 | 0.728 | 5.49 | 0.192 | 6.91
14 | Mo-T (hairy cell leukaemia, suspension) | 0.765 | 2.82 | 0.949 | < 5.29 | 0.847 | 5.12 | 0.907 | < 6.00 | 0.829 | 5.20 | 0.94 | < 4.70 | 0.986 | < 6.00 | 0.827 | 5.20 | 0.8 | 6.29 | 0.862 | 5.04 | 0.418 | 6.13
15 | NALM-6 (B-cell leukaemia, suspension) | 0.32 | 4.06 | 0.638 | 6.14 | 0.946 | < 5.00 | 0.97 | < 6.00 | 0.935 | < 5.00 | 0.741 | 5.28 | 0.99 | < 6.00 | 0.938 | < 5.00 | 0.29 | 7.74 | 0.429 | 6.37 | 0.172 | 6.79
16 | NB5 (neuroblastoma, adherent) | 0.916 | < 2.40 | 0.969 | < 5.29 | 0.975 | < 5.00 | 0.934 | < 6.00 | 0.984 | < 5.00 | 0.97 | < 4.70 | 0.985 | < 6.00 | 0.936 | < 5.00 | 0.759 | 6.44 | 0.901 | < 4.99 | 0.644 | 5.50
17 | NB10 (neuroblastoma, adherent) | 0.593 | 3.35 | 0.941 | < 5.29 | 0.988 | < 5.00 | 0.877 | 6.02 | 0.933 | < 5.00 | 0.977 | < 4.70 | 0.985 | < 6.00 | 0.983 | < 5.00 | 0.657 | 6.76 | 0.852 | 5.12 | 0.767 | 5.14
18 | NB13 (neuroblastoma, adherent) | 0.662 | 3.18 | 0.908 | < 5.29 | 0.947 | < 5.00 | 0.749 | 6.53 | 0.777 | 5.45 | 0.874 | 4.80 | 0.989 | < 6.00 | 0.99 | < 5.00 | 0.58 | 6.99 | 0.914 | < 4.99 | 0.784 | 5.13
19 | NB14 (neuroblastoma, adherent) | 0.72 | 3.00 | 0.939 | < 5.29 | 0.989 | < 5.00 | 0.972 | < 6.00 | 0.85 | 5.16 | 0.944 | < 4.70 | 0.988 | < 6.00 | 0.888 | < 5.00 | 0.711 | 6.62 | 0.921 | < 4.99 | 0.887 | < 4.70
20 | NB(TU)1-10 (neuroblastoma, adherent) | 0.716 | 3.03 | 0.535 | 6.40 | 0.963 | < 5.00 | 0.989 | < 6.00 | 0.993 | < 5.00 | 0.877 | 4.81 | 0.993 | < 6.00 | 0.993 | < 5.00 | 0.672 | 6.75 | 0.987 | < 4.99 | 0.967 | < 4.70
21 | NCI-H28 (mesothelioma, adherent) | 0.749 | 2.78 | 0.969 | < 5.29 | 0.958 | < 5.00 | 0.582 | 6.95 | 0.869 | < 5.00 | 0.964 | < 4.70 | 0.978 | < 6.00 | 0.957 | < 5.00 | 0.888 | < 5.99 | 0.895 | < 4.99 | 0.936 | < 4.70
22 | NCI-H345 (small cell lung carcinoma, suspension) | 0.652 | 3.17 | 0.99 | < 5.29 | 0.99 | < 5.00 | 0.977 | < 6.00 | 0.984 | < 5.00 | 0.99 | < 4.70 | 0.988 | < 6.00 | 0.988 | < 5.00 | 0.914 | < 5.99 | 0.99 | < 4.99 | 0.676 | 5.40
23 | NCI-H446 (small cell lung carcinoma, semi-adherent) | 0.642 | 3.20 | 0.985 | < 5.29 | 0.96 | < 5.00 | 0.982 | < 6.00 | 0.958 | < 5.00 | 0.938 | < 4.70 | 0.98 | < 6.00 | 0.969 | < 5.00 | 0.902 | < 5.99 | 0.655 | 5.75 | 0.202 | 6.82

— the supplement of paper PMC4967469
